Results from the supplement of paper PMC4967469.
Lines with a small IC50 respond at low doses; a limit (>, <) means that the fit lies beyond the doses tested. For AUC the same curve is integrated over the 256-fold range of doses and scaled to a fraction: 1 means no effect, lower means more sensitive. For some of these results: Any top dose called inferred comes from the curve model; the source does not state it. For some of these results: Drugs with an entry number were screened twice under separate entries, and the two screens often disagree.

Legend:
Assay in all cases: Viability of human cancer cell lines after 72 h of drug (GDSC screen)
[1] = compound: Oc1cccc(-c2nc(N3CCOCC3)c3oc4ncccc4c3n2)c1 [PI-103]; conditions: top dose 10.24 µM
Experimental: (§1)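 Human cancer cell lines in 384-well plates, medium with 10% serum, drug for 72 h over a 256-fold dose range (nine 2-fold or five 4-fold steps up to the top dose). Adherent lines were fixed and stained with the nucleic acid dye Syto60, suspension lines read with resazurin; signal relative to control wells, capped at 0 and 100%. One two-parameter sigmoid per drug and line, fitted in a mixed model over all curves with the slope shared within a line.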

[2] = compound: CC1=C(/C=C/C(C)=C/C=C/C(C)=C/C(=O)O)C(C)(C)CCC1 [Tretinoin]; conditions: top dose 10 µM; top dose inferred
Experimental: as §1

[3] = compound: O=C(NCCCNc1nc(Nc2cccc(NC(=O)N3CCCC3)c2)ncc1I)c1cccs1 [BX-795]; conditions: top dose 5 µM; top dose inferred
Experimental: as §1

[4] = compound: CCn1c(-c2nonc2N)nc2c(C#CC(C)(C)O)ncc(OC[C@H]3CCCNC3)c21 [GSK690693]; conditions: top dose 10.24 µM; top dose inferred
Experimental: as §1

[5] = compound: Cc1cccc(-c2[nH]c(C(C)(C)C)nc2-c2ccc3c(c2)OCO3)n1 [SB-505124]; conditions: top dose 10 µM; top dose inferred
Experimental: as §1

[6] = compound: COc1cc2c(NC3CCN(C(C)C)CC3)nc(C3CCCCC3)nc2cc1OCCCN1CCCC1 [UNC0638]
Experimental: as §1

[7] = top dose 20 µM, screen: GDSC drug entry 1236, top dose inferred
[8] = top dose 40 µM, screen: GDSC drug entry 245

HuP-T3 (pancreas, adherent) showed an AUC [1] of 0.532, an IC50 [1] of 796 nM and an AUC [2] of 0.98. The IC50 [2] was > 10 µM, the AUC [3] was 0.912 and the IC50 [3] was > 5 µM. The AUC [4] was 0.972, the IC50 [4] was > 10.2 µM and the AUC [5] was 0.98. For the same cell line, the IC50 [5] was > 10 µM, the AUC [6, 7] was 0.928 and the IC50 [6, 7] was > 20 µM. It also gave an AUC [6, 8] of 0.795 and an IC50 [6, 8] of 23.5 µM.

In the case of HuP-T4 (pancreas, adherent), the AUC [1] is reported as 0.892, the IC50 [1] is reported as > 10200 nM and the AUC [2] is reported as 0.935. For the same cell line, the IC50 [2] was > 10 µM, the AUC [3] was 0.894 and the IC50 [3] was > 5 µM. The AUC [4] was 0.94, the IC50 [4] was > 10.2 µM and the AUC [5] was 0.983. The IC50 [5] was > 10 µM, the AUC [6, 7] was 0.82 and the IC50 [6, 7] was 12.4 µM. For the same cell line, the AUC [6, 8] was 0.597 and the IC50 [6, 8] was 4.69 µM.

With IGR-1 (melanoma, adherent) the AUC [1] was 0.966, the IC50 [1] was > 10200 nM and the AUC [2] was 0.978. The IC50 [2] was > 10 µM, the AUC [3] was 0.891 and the IC50 [3] was 4.57 µM. The AUC [4] was 0.99, the IC50 [4] was > 10.2 µM and the AUC [5] was 0.935. The IC50 [5] was > 10 µM, the AUC [6, 7] was 0.829 and the IC50 [6, 7] was 10.4 µM. It also gave an AUC [6, 8] of 0.649 and an IC50 [6, 8] of 6.12 µM.

IGR-37 (melanoma, adherent) was tested, and the AUC [1] was 0.988, the IC50 [1] was > 10200 nM and the AUC [2] was 0.706. It also gave an IC50 [2] of 2.24 µM, an AUC [3] of 0.825 and an IC50 [3] of 2.65 µM. The AUC [4] was 0.989, the IC50 [4] was > 10.2 µM and the AUC [5] was 0.927. For the same cell line, the IC50 [5] was > 10 µM, the AUC [6, 7] was 0.828 and the IC50 [6, 7] was 10.9 µM. It also gave an AUC [6, 8] of 0.852 and an IC50 [6, 8] of 26.8 µM.

IHH-4 (thyroid, semi-adherent) showed an AUC [1] of 0.575, an IC50 [1] of 984 nM and an AUC [2] of 0.993. For the same cell line, the IC50 [2] was > 10 µM, the AUC [3] was 0.749 and the IC50 [3] was 1.35 µM. For the same cell line, the AUC [4] was 0.99, the IC50 [4] was > 10.2 µM and the AUC [5] was 0.878. It also gave an IC50 [5] of 6.76 µM, an AUC [6, 7] of 0.834 and an IC50 [6, 7] of 9.57 µM. The AUC [6, 8] was 0.933 and the IC50 [6, 8] was > 40 µM.
